Reference: PMC4336329 (PLoS ONE, 2015)
In all, about 310,000 compounds went through this assay and about 14,000 (4.5%) showed an effect of 50% or more. Effects have a minus sign here. This is one part of the list.

What follows are compounds tested against human ether-à-go-go-related gene (hERG) potassium channel (human, UniProt Q12809) (assay: primary screen, population patch clamp on CHO cells stably expressing hERG).
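Note: peak tail current of the secondary pulse compared with the same well before compound.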

human ether-à-go-go-related gene (hERG) potassium channel, sequence (Q12809 whole entry, looked up): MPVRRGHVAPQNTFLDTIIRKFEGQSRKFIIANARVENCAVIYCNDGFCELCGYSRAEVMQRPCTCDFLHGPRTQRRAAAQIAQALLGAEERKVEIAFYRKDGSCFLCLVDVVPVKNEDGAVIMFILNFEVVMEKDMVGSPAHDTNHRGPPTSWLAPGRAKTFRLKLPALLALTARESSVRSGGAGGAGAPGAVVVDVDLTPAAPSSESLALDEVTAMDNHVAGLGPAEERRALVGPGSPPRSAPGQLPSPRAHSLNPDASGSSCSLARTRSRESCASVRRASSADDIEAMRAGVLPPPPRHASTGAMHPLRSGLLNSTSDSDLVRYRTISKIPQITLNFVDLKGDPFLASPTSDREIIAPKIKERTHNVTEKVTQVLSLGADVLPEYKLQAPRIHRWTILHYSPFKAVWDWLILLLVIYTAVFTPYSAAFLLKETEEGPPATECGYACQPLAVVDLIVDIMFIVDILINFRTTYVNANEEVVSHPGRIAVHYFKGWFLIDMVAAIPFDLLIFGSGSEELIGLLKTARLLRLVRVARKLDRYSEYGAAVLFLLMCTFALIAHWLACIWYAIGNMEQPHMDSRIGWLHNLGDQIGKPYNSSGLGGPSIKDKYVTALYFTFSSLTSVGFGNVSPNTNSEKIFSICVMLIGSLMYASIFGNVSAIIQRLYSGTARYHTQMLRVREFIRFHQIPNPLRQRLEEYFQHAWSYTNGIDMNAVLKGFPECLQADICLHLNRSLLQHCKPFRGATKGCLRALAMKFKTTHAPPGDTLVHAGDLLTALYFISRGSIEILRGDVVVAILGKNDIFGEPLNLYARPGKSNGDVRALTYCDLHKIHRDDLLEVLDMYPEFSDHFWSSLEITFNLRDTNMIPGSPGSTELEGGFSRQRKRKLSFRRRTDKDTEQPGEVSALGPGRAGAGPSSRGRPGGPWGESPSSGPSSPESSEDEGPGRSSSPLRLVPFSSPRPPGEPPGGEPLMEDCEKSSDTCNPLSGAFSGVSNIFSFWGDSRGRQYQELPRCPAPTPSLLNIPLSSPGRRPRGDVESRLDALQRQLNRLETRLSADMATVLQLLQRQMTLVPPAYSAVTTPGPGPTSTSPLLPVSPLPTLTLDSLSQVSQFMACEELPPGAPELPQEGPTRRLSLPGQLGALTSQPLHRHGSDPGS

Row | SMILES | hERG current change (%, negative = inhibition) at 10uM
1 | CC1(C)CC(=O)CC2(C1)NCC(c1ccccc1Cl)c1c2[nH]c2ccccc12.Cl (centres unmarked) | -51.4%
2 | CCOc1ccc(S(=O)(=O)Nc2nc3ccccc3nc2-n2ccc(=NC(=O)c3ccccc3C)cc2)cc1 | 5.75%
3 | CCNc1nc(NC(C)C)nc(N(C#N)Cc2ccccc2)n1 | -22.3%
4 | CCOc1ccc(OCC)c(NC(=O)CSc2nnnn2CC)c1 | -12.8%
5 | COc1ccc(/C=N/NC(C)(C)C)c(OC)c1.Cl | 12.3%
6 | Cc1ccc2cc(CN(Cc3ccc4c(c3)OCO4)Cc3nnnn3Cc3ccco3)c(=O)[nH]c2c1 | -39.5%
7 | Cc1ccc(C2(C)CC(C)(C)N(C(=O)CSc3nnc(C)s3)c3ccccc32)cc1 (centres unmarked) | 4.85%
8 | COc1cc(C(=O)OC2C[C@H]3CC[C@@H](C2)N3)ccc1O (some centres unmarked) | -2.71%
9 | O=C(Nc1ccc(Br)cc1)C1CCN(c2cnccn2)CC1 | 2.63%
10 | O=C1NC(=O)c2cc(NC(=O)C3CCCO3)ccc21 (centres unmarked) | -15.8%
11 | O=C(O)c1ccc(Oc2c(C(F)(F)F)oc3cc(O)ccc3c2=O)cc1 | 17.1%
12 | Nc1ccccc1C#CCCCCO | 9.32%
13 | CCNc1nc2[nH]c(=O)c3c(c2s1)OC(N)=C(C#N)C3c1cccs1 (centres unmarked) | 1.8%
14 | CC(=O)N(c1cccc(C)c1)S(=O)(=O)c1ccc(Cl)cc1 | 9.88%
15 | Cc1ccccc1OCCn1cnc2cc([N+](=O)[O-])ccc2c1=O | -7.38%
16 | O=C(C[n+]1cccc(CNC(=O)c2ccc(OC(F)F)cc2)c1)Nc1cc(C(F)(F)F)ccc1Cl.[Cl-] | -18.5%
17 | CCOC(=O)C(NCc1ccc2c(c1)OCO2)(NC(=O)c1ccccc1)C(F)(F)F (centres unmarked) | -0.6%
18 | Cc1ccc2[nH]c(-c3ccccc3)c(CN3CCOCC3)c(=O)c2c1 | -13.9%
19 | COc1ccc(N2CCN(S(=O)(=O)c3ccc(-n4cnnn4)c(C)c3)CC2)cc1 | 9.42%
20 | CC(C)C(NS(=O)(=O)c1cccc2nsnc12)C(=O)NCCC1=CCCCC1 (centres unmarked) | -14.3%
21 | Fc1cccc(Cl)c1CN1CCN(c2nc3ccccc3s2)CC1 | 13.5%
22 | S=C(NCCCN1CCOCC1)NCCCN1CCOCC1 | 25.8%

Row | SMILES | hERG current change (%, negative = inhibition) at 10uM
23 | CNC(=S)N(CCc1c(C)[nH]c2ccc(C)cc12)Cc1ccc(OC)c(OC)c1 | -5.57%
24 | Nc1cc(Nc2ccccc2)c2nonc2c1[N+](=O)[O-] | 16.3%
25 | CC1(C)Cc2nc3nc(SCC(=O)Nc4ccccc4)nc(N)c3cc2CO1 | 10.6%
26 | Cc1cccc(-c2nc(CS(=O)CC(=O)N3CCCCC3)c(C)o2)c1 (centres unmarked) | 18.8%
27 | CSCC[C@H](NC(=O)OC(C)(C)C)c1nnc(SCc2cccc(F)c2)o1 | -30.3%
28 | O=C(O)c1cc(NS(=O)(=O)c2ccc3ccccc3c2)ccc1O | 12.2%
29 | CN1CCN(c2ccc(Cl)cc2NC(=O)C2COc3ccccc3O2)CC1 (centres unmarked) | -44.2%
30 | CN(CC(=O)NCCc1ccc(F)cc1)Cc1ccc(Br)cc1 | -11.1%
31 | O=C1CCN(CCc2ccccc2)CCN1CCSc1ccc(Br)cc1 | -80.1%
32 | Cc1ccccc1OCC(=O)Nc1sc2c(c1C#N)CCC2 | -4.25%
33 | CN(C)CCOC1c2ccccc2-c2ccccc21.O=C(O)C(=O)O | 3.18%
34 | CC(C)NC(=O)NC(=O)CN1c2cccc3cccc(c23)S1(=O)=O | 8%
35 | O=C(c1ccc2c(c1)OCO2)N1CCN(c2ccc(F)cc2)CC1 | -30.4%
36 | COc1ccc(CNCCC(c2ccccc2)c2ccc(OC(C)C)cc2)cc1OC (centres unmarked) | -69.7%
37 | O=C(CSCc1ccc(F)cc1)NCc1ccc2c(c1)OCO2 | -9.94%
38 | N/C(=N\OC(=O)Oc1ccccc1)c1ccc(Cl)cc1 | 0.651%
39 | Cc1cccc(N=Nc2c(O)[nH]c3ccc(Br)cc23)c1 | 13.5%
40 | CC(=O)Nc1cccc(OCC(=O)Nc2sccc2C(N)=O)c1 | 1.46%
41 | COC(=O)[C@@H]1C[C@@]2(O)[C@H](O)[C@H](O)[C@H](O)C[C@H]2N1CC(c1ccccc1)c1ccccc1 | 14.3%
42 | COc1ccc2c(c1)C(C)CC(C)(C)N2C(=O)Nc1ccccc1 (centres unmarked) | 8.54%
43 | CCN1C(=O)CCCc2ccccc21 | 17.6%
44 | CCn1nc(NC(=O)c2ccco2)c2cc3ccccc3nc21 | -0.887%
